Read counts are not given, so values of variants with three or more changes are uncertain.

The values that follow come from the RNAGym collection of RNA variant scans (doi:10.7554/elife.90254).

The labels stand for the following.
B1: LINE1-full (parent)
chain: UACGUAGGUGGUUUUCCCCUGAUAGUGCUAAGGGGGCCUGGAAGUUUGGACUGGGCAGAGCUCAACACAGCGUGGCAAAGUGGCUGUGGCUAGACUGCCUCUCUGGAUUCCUCGUCACUCAGCAGGGCAUCUCUGAGAGAAAUGCC

In the data set the parent is B1. Put plainly: self-cleavage, relative activity (ratio to wild type); higher = more cleavage; in vitro, sequencing; the parent is a self-cleaving ribozyme.
As for CACGUAGGUGGUUUUCCCCUGAUAGUGCUAAGGGGGCCUGAAAGUUUGGACUGGGCAGAGCUCAACACAGCGUGGCAAAGUGGAUGUGGCUAGACUGCCUCUCUGGAUUCCUCGUCACUCAGCAGGGCAUCUCUGAGAGAGAUGCC [U1C G41A C84A A141G], the self-cleavage is 0.07. In the case of CACGUAGGUGGUUGUCCCCUGAUAGUGCUAAGGGGGCCUGGAAGUUAGGACUGGGCAGAGCUCAACACAGCGUGGCAAAGUGGCUGUGGCUAGACUGCCUCUCUGGAUUCCUCGUCACUCAGCAGGGCAUCUCUGAGAGAAAUGCC [U1C U14G U47A] it was 1.21; in that of CACGUAGGUGGUUCUCCCCUGAUAGUGCUAAGGGGGCCUGGAAGUUUGGACUGGGCAGAGCUCAACACAGCGUGGCAAAGUGGCUGUGGCUAGACUGCCUCUCUGGAUUCCUCGUCACCCAGCAGGGCAUCUCUGGGAGUAAUGCC [U1C U14C U119C A136G A140U], 1.44. Take CACGUAGGUGGUUUUCCCCUGAUAGUACUAAGGGGGCCUGGAAGUUUGGACUGGGCAGAGCUCGACACGGCGUGGCAAAGUGGCUGAGGCUAGACUGCCUCUCCGGAUUCCUCGUCACUCAGCAGGGCAUCUCUGAGAGAAAUGCC [U1C G27A A64G A69G U87A U104C]: the self-cleavage amounted to 0.

On to CACGUAGGCGGUUCUCCCCUGAUAGUGCUAAGGGGGCCUGGAGGUUUGGACUGGGCAGAGCUCUACACUGCGUGGCAAAGUGGCUGUGGCUAGACUGCCUCUCUGGAUUCCUCGUCACUCAGCAGGGCAUCUCUGAGAGAAAUGCC [U1C U9C U14C A43G A64U A69U], for which the self-cleavage came to 0.36.

In the case of CACGUAGGUGGCUUUCCCCUGAUAGUGCUAAGGGGGCCUGGAAGUUUGGACUGGGCAGAGCUCAACACAGCGUGGCGAAGUGGCUGUGGCUAGACUGCCUCUCUGGAUUCCUCGUCACUCAGCAGGGCAUCUCUGAGAGAAAUGCC [U1C U12C A77G], the self-cleavage was 0. On to CACGUAGGCGGUUUUCCCCUGAUAGUGCUAAGGGGGCCUGGAAGUUCGGACUGGGCAGAGCUCAACACAGCGUGGCAAAGUGGCUGUGGCUAGACUGCCUCUCUGGAUUCCUCGUCACUCAGCAGGGCAUCUCUGAGAGAAAUGCC [U1C U9C U47C], for which the self-cleavage was 0.47.

Consider CACGUAGGUGGCUUUCCCCUGAUAGUGCUAAGGGGGCCUGGAAGUUUGGACUGGGCAGAGCUCAACACAGCGUGGCAAAGUGGCUGUGGCUAGACUGCCUCCCUGGAUUCCUCGUCACUCAGCGGGGCAUCUCUGAGAGAAAUGCC [U1C U12C U102C A124G], for which the self-cleavage was found to be 0. As for CACGUAGGUGGUUUUCCCCUGAUAGUGCUAAGGGGGCCUGGAAGUUUGGACUGGGCAGAGCUCAACACAGCGUGGCAAAGUGGCUGUUGCUAGACUGCCUCCCUGGAUUCCUCGUCACUCAGCAGGGCAUCUCUGAGAGAAAUGCC [U1C G88U U102C], the figure is 0.36; as for CACGUAGGAGGUUUUCCCCUGAUAGUGCUAAGGGGGCCUGGAAGUUUGGACUGGGCAGAGCUCAACACAGCCUGGCAAAGUGGCUGUGGCUAUACUGCCUCUCUGGAUUCCUCGUCACUCAGCAGGGCAUCUCUGAGAGAAAUGCC [U1C U9A G72C G93U], 0.04; as for CACGUAGGUGGUUUUCCCCUGAUAGUGCUAAGGGGGCCUGGAAGUUUGGACUGGGCAGAGCUCAACACAGCGUGGCAAAAUGGCUGUGGCUAGACUGCCUCUCUGGAUUCCCCGUCACUCAGCAGGGCAUCUCUGAGAGAAAAGCC [U1C G80A U112C U143A], 0.89. In the case of CACGUAGGUGGUCAUCCCCUGAUAGUGCUAAGGGGGCCUGGAAGUUUGGACUGGGCAGAGCUCAACACAGCGUGGCAAAGUGGCUGUGGCUAGACUGCCUCUCUGGAUUCCUCGUCACUCAGCAGGGCAUCUCUGAGAGAAAUGCC [U1C U13C U14A], the self-cleavage turned out to be 0.

Regarding CACGUAGGUGGUUAUCCCCUGAUAGUGCCAAGGGGGCUUGGAAGUUUGGACUGGGCAGAGCUCAACACAGCGUGGCAAAGUGGCUGUGGCUAGACUGCCUCUCUGGAUUCCUCGUCACUCAGCAGGGCAUCUCUGAGAGAGAUGCC [U1C U14A U29C C38U A141G], the self-cleavage was determined as 0.64. Turning to CACGAAGGUGGUUUUCCCCUGAUAGUGCUAAGGGGGCCUGGAAGUUUGGACUGGGCAGAGCUCAACACAGCGUGGCAAAGUGGCUGUGGCUAGACUGCCUCUCUGGAUUCCUCGCCACUCAGCAGGGCAUCUCUGAGAGAAAUGCC [U1C U5A U115C], the self-cleavage came out at 0.9. For CACGUAGGUGGAUUUCCCCUGAUAGUGCUAAGGGGGCCUGGAAGUUUGGACUGGGCAGAGCUCAACACAGCGUGGCAAAGUGGCUGUGGCUAGACUGCCUCUCUGGAUACCUCGUCACUCGGCAGGGCAUCUCUGAGAGAAAUGCC [U1C U12A U109A A121G], the self-cleavage came to 0.78. As to CACGUAGGUGGCUUUCCCCUGAUAGUGCUAAGGGGGCCUGGAAGUUUGGACUGGGCAGAGCUCAACACGGCGUGGCGAAGUGGCUGUGGCUAGACUGCCUCUCUGGAUUCCUCGUCACUCAGCAGGGCAUCUCUGAGAGGAAUGCC [U1C U12C A69G A77G A140G], the self-cleavage came to 0. Consider CACGUAGGAGGUUUUCCCCUGAUAGUGCUAUGGGGGCCUGGAAGUUUGGACUGGGCAGGGCUCAACACAGCGUGGCAAAGUGGCUGUGGCUAGACUGCCUCUCUGGAUUCCUCGUCACUCAGCAGGGCAUCUCUGAGAGUAAUGCC [U1C U9A A31U A59G A140U], for which the self-cleavage worked out at 0.28. Regarding CACGUAGGAGGUUUUCCCCUGAUAGUGCUAAGGGGGCCUGGAAGUUUGGACUGGGCAGAGCUCAACUCAGCGUGGCAAAGUGGCUGUGGCUAGACUGCCCUUCUGGAUUCCUCGUCACUCAGCGGGGCAUCUCUGAGAGGAAUGCC [U1C U9A A67U U100C C101U A124G A140G], the self-cleavage was 0.07.

On to CACGUAGGUGGCUUUCCCCUGAUGGUGCUAAGGGGGCCUGGAAGUUUGGACUGGGCAGAGCUCAACACAGCGUGGCAAAGUGGCUGUGGCUAGACUGCCUCUCUGGAUUCCUCGUCACUCAGCAGGGCAUCUCUGAGAGAAAUGCC [U1C U12C A24G], for which the self-cleavage turned out to be 1.48.
